# In the supplement of paper PMC8728848:
# The list shows a part of the results.
# Assays:
# Test in all cases: glycan array binding signal (z-score within array); higher = stronger binding
# Conditions in all cases: glycan notation: IUPAC condensed, linker removed; mutation: R144S
# [1] = molecular target: Gal(b1-3)[Neu5Ac(a2-6)]GalNAc
# Method in brief: (§1)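 From the Consortium for Functional Glycomics database, 3228 arrays were curated, keeping only those whose protein sequence was available. Binding is given as a within-array Z-score averaged across arrays sharing a protein sequence and across linkers. Negative Z-scores can be read as non-binding.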
# [2] = molecular target: Gal(b1-3)[Neu5Ac(a2-6)]GlcNAc(b1-6)Gal(b1-4)Glc
# Method in brief: as §1
# [3] = molecular target: Gal(b1-3)[Neu5Ac(b2-6)]GalNAc
# Method in brief: as §1
# [4] = molecular target: Gal(b1-4)GalNAc(a1-3)[Fuc(a1-2)]Gal(b1-4)GlcNAc
# Method in brief: as §1
# [5] = molecular target: Gal(b1-4)GalNAc(b1-3)[Fuc(a1-2)]Gal(b1-4)GlcNAc
# Method in brief: as §1
# [6] = molecular target: Gal(b1-4)Glc
# Method in brief: as §1
# [7] = molecular target: Gal(b1-4)Glc6S
# Method in brief: as §1
# [8] = molecular target: Gal(b1-4)GlcNAc
# Method in brief: as §1
# [9] = molecular target: Gal(b1-4)GlcNAc(a1-6)Gal(b1-4)GlcNAc
# Method in brief: as §1
# [10] = molecular target: Gal(b1-4)GlcNAc(b1-2)Man(a1-3)Man(b1-4)GlcNAc(b1-4)GlcNAc
# Method in brief: as §1
# [11] = molecular target: Gal(b1-4)GlcNAc(b1-2)Man(a1-3)[Gal(b1-4)GlcNAc(b1-2)Man(a1-6)]Man(b1-4)GlcNAc(b1-4)GlcNAc
# Method in brief: as §1
# [12] = molecular target: Gal(b1-4)GlcNAc(b1-2)Man(a1-3)[Gal(b1-4)GlcNAc(b1-2)Man(a1-6)]Man(b1-4)GlcNAc(b1-4)[Fuc(a1-6)]GlcNAc
# Method in brief: as §1
# [13] = molecular target: Gal(b1-4)GlcNAc(b1-2)Man(a1-3)[GlcNAc(b1-2)Man(a1-6)]Man(b1-4)GlcNAc(b1-4)GlcNAc
# Method in brief: as §1
# [14] = molecular target: Gal(b1-4)GlcNAc(b1-2)Man(a1-3)[Man(a1-6)]Man(b1-4)GlcNAc(b1-4)GlcNAc
# Method in brief: as §1
# [15] = molecular target: Gal(b1-4)GlcNAc(b1-2)Man(a1-6)Man(b1-4)GlcNAc(b1-4)GlcNAc
# Method in brief: as §1
# [16] = molecular target: Gal(b1-4)GlcNAc(b1-2)Man(a1-6)[GlcNAc(b1-2)Man(a1-3)]Man(b1-4)GlcNAc(b1-4)GlcNAc
# Method in brief: as §1
# [17] = molecular target: Gal(b1-4)GlcNAc(b1-2)Man(a1-6)[Man(a1-3)]Man(b1-4)GlcNAc(b1-4)GlcNAc
# Method in brief: as §1
# [18] = molecular target: Gal(b1-4)GlcNAc(b1-2)[Gal(b1-4)GlcNAc(b1-4)]Man(a1-3)[Gal(b1-4)GlcNAc(b1-2)Man(a1-6)]Man(b1-4)GlcNAc(b1-4)GlcNAc
# Method in brief: as §1
# [19] = molecular target: Gal(b1-4)GlcNAc(b1-2)[Gal(b1-4)GlcNAc(b1-4)]Man(a1-3)[Gal(b1-4)GlcNAc(b1-2)[Gal(b1-4)GlcNAc(b1-6)]Man(a1-6)]Man(b1-4)GlcNAc(b1-4)GlcNAc
# Method in brief: as §1
# [20] = molecular target: Gal(b1-4)GlcNAc(b1-3)Gal(b1-3)GlcNAc
# Method in brief: as §1
# [21] = molecular target: Gal(b1-4)GlcNAc(b1-3)Gal(b1-4)Glc
# Method in brief: as §1
# [22] = molecular target: Gal(b1-4)GlcNAc(b1-3)Gal(b1-4)GlcNAc
# Method in brief: as §1
# [23] = molecular target: Gal(b1-4)GlcNAc(b1-3)Gal(b1-4)GlcNAc(b1-3)Gal(b1-4)GlcNAc
# Method in brief: as §1
# [24] = molecular target: Gal(b1-4)GlcNAc(b1-3)Gal(b1-4)[Fuc(a1-3)]GlcNAc(b1-3)Gal(b1-4)[Fuc(a1-3)]GlcNAc
# Method in brief: as §1
# [25] = molecular target: Gal(b1-4)GlcNAc(b1-3)GalNAc
# Method in brief: as §1
# [26] = molecular target: Gal(b1-4)GlcNAc(b1-3)[Gal(b1-4)GlcNAc(b1-6)]Gal(b1-4)GlcNAc
# Method in brief: as §1
# [27] = molecular target: Gal(b1-4)GlcNAc(b1-3)[Gal(b1-4)GlcNAc(b1-6)]GalNAc
# Method in brief: as §1
# [28] = molecular target: Gal(b1-4)GlcNAc(b1-3)[GlcNAc(b1-6)]Gal(b1-4)GlcNAc
# Method in brief: as §1
# [29] = molecular target: Gal(b1-4)GlcNAc(b1-6)Gal(b1-4)GlcNAc
# Method in brief: as §1
# [30] = molecular target: Gal(b1-4)GlcNAc(b1-6)GalNAc
# Method in brief: as §1
# [31] = molecular target: Gal(b1-4)GlcNAc(b1-6)[Gal(b1-3)]GalNAc
# Method in brief: as §1
# [32] = molecular target: Gal3S(b1-3)GalNAc
# Method in brief: as §1
# [33] = molecular target: Gal3S(b1-3)GlcNAc
# Method in brief: as §1
# [34] = molecular target: Gal3S(b1-3)[Fuc(a1-4)]GlcNAc
# Method in brief: as §1
# [35] = molecular target: Gal3S(b1-4)Glc
# Method in brief: as §1
# [36] = molecular target: Gal3S(b1-4)Glc6S
# Method in brief: as §1
# [37] = molecular target: Gal3S(b1-4)GlcNAc
# Method in brief: as §1
# [38] = molecular target: Gal3S(b1-4)GlcNAc6S
# Method in brief: as §1
binder,measurement,setting,value
"Gal 3 (Homo sapiens), P17931 (protein) MADNFSLHDALSGSGNPNPQGWPGAWGNQPAGAGGYPGASYPGAYPGQAPPGAYPGQAPPGAYHGAPGAYPGAPAPGVYPGPPSGPGAYPSSGQPSAPGAYPATGPYGAPAGPLIVPYNLPLPGGVVPRMLITILGTVKPNANSILDFQRGNDVAFHFNPRFNENNRRVIVCNTKLDNNWGREERQSVFPFESGKPFKIQVLVEPDHFKVAVNDAHLLQYNHRVKKLNEISKLGISGDIDLTSASYTMI",glycan array binding signal (z-score),[1],-0.352
same,glycan array binding signal (z-score),[2],-0.358
same,glycan array binding signal (z-score),[3],-0.347
same,glycan array binding signal (z-score),[4],5.09
same,glycan array binding signal (z-score),[5],-0.357
same,glycan array binding signal (z-score),[6],-0.362
same,glycan array binding signal (z-score),[7],-0.357
same,glycan array binding signal (z-score),[8],-0.346
same,glycan array binding signal (z-score),[9],-0.019
same,glycan array binding signal (z-score),[10],0.468
same,glycan array binding signal (z-score),[11],0.995
same,glycan array binding signal (z-score),[12],0.5
same,glycan array binding signal (z-score),[13],0.483
same,glycan array binding signal (z-score),[14],0.359
same,glycan array binding signal (z-score),[15],-0.102
same,glycan array binding signal (z-score),[16],0.266
same,glycan array binding signal (z-score),[17],-0.207
same,glycan array binding signal (z-score),[18],1.12
same,glycan array binding signal (z-score),[19],2.24
same,glycan array binding signal (z-score),[20],1.08
same,glycan array binding signal (z-score),[21],0.743
same,glycan array binding signal (z-score),[22],1.08
same,glycan array binding signal (z-score),[23],2.54
same,glycan array binding signal (z-score),[24],0.336
same,glycan array binding signal (z-score),[25],-0.147
same,glycan array binding signal (z-score),[26],1.2
same,glycan array binding signal (z-score),[27],0.792
same,glycan array binding signal (z-score),[28],1.43
same,glycan array binding signal (z-score),[29],-0.305
same,glycan array binding signal (z-score),[30],-0.34
same,glycan array binding signal (z-score),[31],-0.323
same,glycan array binding signal (z-score),[32],-0.346
same,glycan array binding signal (z-score),[33],-0.354
same,glycan array binding signal (z-score),[34],-0.363
same,glycan array binding signal (z-score),[35],-0.361
same,glycan array binding signal (z-score),[36],-0.339
same,glycan array binding signal (z-score),[37],-0.359
same,glycan array binding signal (z-score),[38],-0.288
